# Reference: publication PMC4336329 (PLoS ONE, 2015)
# In all, about 310,000 compounds went through this assay and about 14,000 (4.5%) showed an effect of 50% or more. The effect is printed as a negative number. The list shows a part of the results.
# Target: human ether-à-go-go-related gene (hERG) potassium channel (human, UniProt Q12809)
# Test: primary screen, population patch clamp on CHO cells stably expressing hERG
# 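Further: peak tail current of the secondary pulse compared with the same well before compound.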
# Sequence of human ether-à-go-go-related gene (hERG) potassium channel (Q12809 whole entry, looked up): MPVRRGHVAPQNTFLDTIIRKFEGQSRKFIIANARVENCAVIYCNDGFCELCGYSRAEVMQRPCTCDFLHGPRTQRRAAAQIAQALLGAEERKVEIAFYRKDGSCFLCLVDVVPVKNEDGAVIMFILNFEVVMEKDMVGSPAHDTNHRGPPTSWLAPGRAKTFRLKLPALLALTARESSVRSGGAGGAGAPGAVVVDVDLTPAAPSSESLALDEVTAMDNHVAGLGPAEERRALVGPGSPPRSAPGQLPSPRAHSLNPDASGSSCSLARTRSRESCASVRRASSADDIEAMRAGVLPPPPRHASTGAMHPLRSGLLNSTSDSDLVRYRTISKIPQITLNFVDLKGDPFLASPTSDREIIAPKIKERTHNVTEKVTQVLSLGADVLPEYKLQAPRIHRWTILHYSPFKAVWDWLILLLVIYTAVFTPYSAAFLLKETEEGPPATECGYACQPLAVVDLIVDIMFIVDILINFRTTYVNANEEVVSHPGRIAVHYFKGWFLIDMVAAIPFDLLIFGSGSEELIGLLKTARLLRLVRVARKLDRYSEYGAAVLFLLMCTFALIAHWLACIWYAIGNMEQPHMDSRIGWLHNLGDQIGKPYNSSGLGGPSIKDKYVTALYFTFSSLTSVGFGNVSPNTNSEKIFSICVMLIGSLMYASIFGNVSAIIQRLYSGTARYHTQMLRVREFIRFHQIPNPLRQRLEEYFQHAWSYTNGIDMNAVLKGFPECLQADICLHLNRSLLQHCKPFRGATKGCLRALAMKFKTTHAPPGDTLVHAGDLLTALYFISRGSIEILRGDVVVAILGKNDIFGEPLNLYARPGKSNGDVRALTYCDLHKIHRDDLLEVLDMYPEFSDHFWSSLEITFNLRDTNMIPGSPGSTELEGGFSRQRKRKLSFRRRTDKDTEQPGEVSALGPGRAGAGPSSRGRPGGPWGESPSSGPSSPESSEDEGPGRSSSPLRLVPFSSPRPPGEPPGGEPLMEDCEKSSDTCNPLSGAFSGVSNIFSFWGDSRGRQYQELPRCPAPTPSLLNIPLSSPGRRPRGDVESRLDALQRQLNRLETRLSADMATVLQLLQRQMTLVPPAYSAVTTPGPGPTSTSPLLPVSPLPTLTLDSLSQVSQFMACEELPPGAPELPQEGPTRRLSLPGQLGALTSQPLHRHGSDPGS
row,SMILES,"hERG current change (%, negative = inhibition) at 10uM"
1,COc1ccc(C)cc1-n1c(SCC(=O)Nc2cc(C)on2)nc2ccccc2c1=O,10%
2,CCN(CC(=O)Nc1c(F)cccc1F)C(=O)CN1C(=O)c2ccccc2C1=O,2.29%
3,OCCC1CN(Cc2cn[nH]c2C2CCCCC2)CCN1C1CCCC1 (stereo not shown),0.0531%
4,O=C(COC(=O)C1CCN(S(=O)(=O)c2cc([N+](=O)[O-])ccc2Cl)CC1)Nc1ncc(Cl)cc1Cl,-57.6%
5,COc1ccc(-c2cc(C(F)F)n3ncc(C(=O)Nc4cnn(Cc5ccccc5)c4)c3n2)cc1,-3.38%
6,COc1ccc(CCOC(=O)c2ccc(N)c([N+](=O)[O-])c2)cc1,27.1%
7,COc1ccc(-c2ncc(CN3CCN(CCC(C)C)C(CCO)C3)cn2)cc1 (stereo not shown),-43.4%
8,CC(C)[C@H](NC(=O)OCc1ccccc1)C(=O)OCC(=O)N1CCN(c2ccc(F)cc2)CC1,-75.3%
9,O=C(CN(Cc1ccccc1)C(=O)CCC(=O)Nc1ccccn1)NCc1ccc(F)cc1,-20.5%
10,C[C@H](CO)NC(=O)[C@H](C)[C@H]1C[C@]1(C)[C@H](NC(=O)OCc1ccccc1)c1ccccc1,-3.55%
11,O=C(Nc1ccc(CSc2ccccc2)cc1)c1ccccc1,9.58%
12,C#CCOCCOCCOCCNc1nc(N2CCN(C(=O)CCCCCCCCCCNC(=O)[C@H]([C@@H](C)CC)n3cc(CCCCN=C(N)N)nn3)CC2)nc(N2CCN(C(=O)CCCCCCCCCCNC(=O)[C@H](CO)n3cc(CCCSC)nn3)CC2)n1,32.9%
13,C=C1C[C@@H]2[C@H](CC[C@]3(C)C(=O)CC[C@@H]23)[C@@]2(C)C=CC(=O)C=C12,-7.85%
14,COC(=O)C1=C(C)NC(=O)NC1C1CC=CCC1 (stereo not shown),19.2%
15,CCCN1CCC(=O)N([C@H](CSc2ccc(C)cc2)c2ccccc2)CC1,-76%
16,COc1ccc(-n2cnc3cc(NCc4ccccn4)ccc32)cc1,-19.1%
17,COC(=O)C(NNc1ccccc1)(NC(=O)c1ccccc1F)C(F)(F)F (stereo not shown),8.03%
18,CC(=O)c1ccc(NC(=O)/C(=C\c2cccs2)NC(=O)c2ccco2)cc1,17.9%
19,COc1ccc(NC(=O)Cc2ccc(C)cc2)c([N+](=O)[O-])c1,9.04%
20,CCCCCC(=O)NCC(C)NC(=O)CCCCC (stereo not shown),4.47%
21,Cc1cccc(OCCN2C(=O)C(=O)c3cccc(C)c32)c1,10.2%
22,CCOC(=O)c1cn(-c2ccccc2CO)c2c(F)c(F)c(F)cc2c1=O,26.5%

row,SMILES,"hERG current change (%, negative = inhibition) at 10uM"
1,CCCn1c(C2CCCN2c2nc(-c3ccc(C)cc3)cs2)nc2ccccc21 (stereo not shown),11.3%
2,Cc1cccc(Nc2nc(N)c([N+](=O)[O-])c(N3CCCC(C)C3)n2)c1 (stereo not shown),0.369%
3,Nc1cc(=O)nc(SCC(=O)Nc2ccccc2Cl)n1-c1ccccc1,31.3%
4,COc1ccc(Cl)cc1N(CC(=O)N/N=C/c1ccc(OCC(N)=O)cc1)S(C)(=O)=O,7.22%
5,FC(F)(F)c1ccccc1Nc1nccs1,-16.1%
6,Cc1ccc(/C=C/c2nc3ccccc3c(=O)[nH]2)cc1,20.6%
7,Cc1ccc(NC(=O)OCCNC(=O)c2ccncc2)cc1,8.86%
8,FC(F)(F)c1cccc(-n2cc(-c3ccccc3)[nH]c2=S)c1,14.5%
9,CCOC(=O)C(C)Sc1nc2c(c(=O)[nH]c(=O)n2C)n1CCc1ccccc1 (stereo not shown),-49.8%
10,CCn1c(SCc2cc(=O)[nH]c3ccccc23)nc2c1c(=O)n(C)c(=O)n2C,-19.9%
11,Cc1nn(Cc2ccccc2)c(C)c1NC(=O)CSc1nc2sc3c(c2c(=O)n1C)CCC3,0.966%
12,C=CCNc1nc(-c2ccccc2)c(C(=O)OCC)cc1C#N,-16.6%
13,COc1ccc(C(=O)NCC(=O)N2CCN(c3ccc(F)cc3)CC2)cc1,-1.94%
14,COc1c[nH]n(-c2ccccc2)c(=O)c1=O,12.3%
15,Cc1c(NC(=O)c2cc(-c3ccc(Br)cc3)on2)c(=O)n(-c2ccccc2)n1C,3.07%
16,COc1cc(OC)c(NC(=O)CCc2ccccc2)cc1Cl,-5.18%
17,O=C(O)CCc1c(C(=O)O)[nH]c2ccccc12,12.7%
18,O=C(CN1C(=O)NC2(CCCC2)C1=O)Nc1ccccc1-c1ccccc1,2.69%
19,COCCCNC(=O)Cn1nc(-c2cccc(OC)c2)ccc1=O,6.99%
20,O=C(Cc1ccccn1)c1ccccc1,30.3%
21,Cc1nn(CCC(=O)NNC(=S)NCC(C)C)c(C)c1Br,14%
22,O=C(O)CCN1C(=O)/C(=C2\C(=O)N(Cc3ccccc3Cl)c3ccccc32)SC1=S,12.8%

row,SMILES,"hERG current change (%, negative = inhibition) at 10uM"
1,Cc1cc(C)n(C(=O)CSc2ccc(Cl)cc2)n1,-9.36%
2,CCC(Br)C(=O)Nc1ccc(OC)cc1 (stereo not shown),18.3%
3,O=C(NCCc1c[nH]c2ccccc12)c1cccc(S(=O)(=O)Nc2ccccc2Cl)c1,6.04%
4,Cn1c(Sc2ccc([N+](=O)[O-])cc2C(F)(F)F)nnc1-c1ccccc1,-55%
5,CCn1c(Cc2ccccc2)nnc1SCC(=O)Nc1nc2ccccc2s1,-0.933%
6,Cc1c(O)ccc2c(CN3CCN(C/C=C/c4ccccc4)CC3)cc(=O)oc12,-64.1%
7,Nc1c(C(=O)NCC2CCCO2)c2nc3ccccc3nc2n1-c1ccccc1 (stereo not shown),2.35%
8,CCOC(=O)c1ccc(NC(=O)CSc2ncccn2)cc1,6.76%
9,CCOC(=O)/C=c1\s/c(=C(\C#N)C(=O)NC)n(-c2ccccc2)c1=O,10.6%
10,COCCN=C1N[C@@H](c2ccc(Br)cc2)C(C(=O)OC)=C(C)N1Cc1ccccc1,-55.3%
11,COc1ccc(CCNC(=O)c2cc(S(=O)(=O)N3CCOCC3)cn2C)cc1OC,-0.633%
12,O=C(Cn1c(C(F)(F)F)nc2ccccc21)Nc1ccccc1C(=O)O,8.51%
13,COc1ccc(CN2CCN(C(=O)Cn3nc(C)n4cccc4c3=O)CC2)c(OC)c1OC,17.2%
14,COc1cc(/C=N/n2c(-c3n[nH]c4c3CCC4)n[nH]c2=S)ccc1O,21%
15,Cc1cccc(C(=O)N2CCCC(c3nc(-c4ccc(F)cc4)no3)C2)c1 (stereo not shown),-9.94%
16,Cc1ccc(CCNC(=O)C2CCC(=O)N(Cc3cccc(F)c3)C2)cc1 (stereo not shown),-4.64%
17,CCOC(=O)c1ccc(NC(=O)CN(C)S(=O)(=O)c2ccc(Br)s2)cc1,6.95%
18,C=CCC(NC(=O)c1ccc(C#N)cc1)C(=O)NCCC (stereo not shown),-1.44%
19,Cc1oc2nc(SCC(=O)Nc3ccc(S(N)(=O)=O)cc3)nc(NC(=O)c3ccccc3)c2c1C,-2.65%
20,Nc1cc(=O)[nH]c(SCCSc2ccccc2)n1,11.4%
21,Cc1cc(C)c(-c2cc(NC(=O)COC(=O)c3ccc(NC(=O)CC#N)cc3)n(-c3ccccc3)n2)cc1C,0.104%
22,O=C(O)/C=C/C(=O)N1Cc2cc3ccccc3nc2C1,1.94%

row,SMILES,"hERG current change (%, negative = inhibition) at 10uM"
1,COC(=O)C1(C)NC(c2ccccc2C)C2C(=O)N(c3ccccc3)C(=O)C21 (stereo not shown),13%
2,COc1ccccc1Nc1nc(-c2sc(NC(=O)c3cccc(Cl)c3)nc2C)cs1,15.4%
3,O=C(Nc1cccc(Cl)c1)N1CCSc2cc(Cl)ccc21,2.92%
4,NC(=O)c1ccsc1NC(=O)c1cccs1,-13.6%
5,O=C(CCCc1ccccc1)N=C1SC2CS(=O)(=O)CC2N1c1ccccc1 (stereo not shown),15.9%
6,O=c1[nH]c2ccccc2n1CCCSCCCn1c(=O)[nH]c2ccccc21,1.36%
7,O=C(COC(=O)C1CCN(S(=O)(=O)c2c(Cl)cccc2Cl)CC1)NCc1ccco1,-38.6%
8,Cc1ccc(-c2nc(NCCN3CCOCC3)c3ccccc3n2)cc1,-12.4%
9,Cc1ccc(C(=O)NC(=S)NCC2CCCO2)cc1[N+](=O)[O-] (stereo not shown),10.1%
10,CCc1ccc(C(CC(=O)O)N2Cc3ccccc3C2=O)cc1 (stereo not shown),31.2%
11,COc1cc(/C=C2/C(=N)N3C(=NC2=O)SN=C3S(C)(=O)=O)ccc1OC(=O)c1ccco1,19.4%
12,CCNc1nc(C)nc2c1oc1ccccc12.Cl,-7.52%
13,Cn1cccc1/C=N/NC(=O)CSc1nc2ccccc2n1C,-10.9%
14,CC(OC(=O)c1ccc(Cl)c(S(N)(=O)=O)c1)C(=O)NCc1ccc2c(c1)OCO2 (stereo not shown),-5.89%
15,CS(=O)(=O)c1ccccc1-c1nc(-c2ccc(C(F)(F)F)cc2)no1,5.31%
16,CN1C[C@@H]2C[C@@H](C3=Cc4cc(Cl)ccc4OC3)N3CCC[C@@]23C1=O,-32.7%
17,O=C(COc1ccccc1)Nc1ccc(Cl)cn1,29%
18,Cc1ccc(CSc2nnc(-c3ccccn3)n2N)cc1,9.42%
19,Cc1ccc(OCCNc2ccc(C(F)(F)F)cc2[N+](=O)[O-])cc1,16.7%
